Laboratory results as given in PubChem BioAssay (Tox21).
The inconclusive results got no clear call from the source; some entries with a clear call stand among them for comparison. For some assays here: Potencies of inconclusive entries are doubtful fits and often do not repeat. Active and inactive are the calls of the source. Unless noted, the call rests on the fitted dose curve.

Legend:
[1] = target: Peroxisome proliferator-activated receptor gamma (Homo sapiens) (UniProt P37231); experiment: qHTS assay to identify small molecule antagonists of the peroxisome proliferator-activated receptor gamma (PPARg) signaling pathway (AID 743191); conditions: HEK293H PPARg-UAS-bla, beta-lactamase ratio, antagonist, 17 h; ratio activity, negative = inhibition: at 62.6 µM (top of the series) unless noted; further: nearly all actives have a fitted effect of over 30% in size; further: potency means the concentration at half of the fitted maximal effect
Summary of the method: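 Beta-lactamase reporter under UAS control in HEK293H PPARg-bla cells; compound treatment 17 h at 37C. Read-out: fluorescence intensity after 1 h room-temperature incubation with LiveBLAzer B/G FRET substrate.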

[2] = qHTS assay for small molecule activators of the heat shock response signaling pathway - cell viability counter screen (AID 743209; active means well fitted curve in the direction sought with a large enough effect in the repeat runs; inconclusive means weak or mixed curves; inactive means no such curve, though single readings can be large; an effect the other way counts as inactive or inconclusive; further: nearly all actives have a fitted effect of over 50% in size; further: potency means the concentration at half of the fitted maximal effect); conditions: HSE-bla HeLa viability, CellTiter-Glo luminescence, 5 h; activity change, negative = cytotoxicity: at 62.6 µM (top of the series) unless noted
Summary of the method: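 HSE-bla HeLa; 1500 cells/well; overnight 37 C, 5% CO2; compound 5 h 37 C; LiveBLAzer B/G substrate 2.5 h RT; CellTiter-Glo 30 min RT; luminescence.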

[3] = qHTS assay to identify small molecule agonists of the farnesoid-X-receptor (FXR) signaling pathway - cell viability counter screen (AID 743218; active means well fitted curve in the direction sought with a large enough effect in the repeat runs; inconclusive means weak or mixed curves; inactive means no such curve, though single readings can be large; an effect the other way counts as inactive or inconclusive; further: nearly all actives have a fitted effect of over 45% in size; further: potency means the concentration at half of the fitted maximal effect); conditions: FXR-bla HEK293T viability, CellTiter-Glo luminescence, 16 h; viability change, negative = cytotoxic: at 62.6 µM (top of the series) unless noted
Summary of the method: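 Luminescence from CellTiter-Glo, read after 30 min at RT, reports viability of GeneBLAzer FXR-UAS-bla HEK 293T cells treated 16 h with compounds in the wells used for the beta-lactamase reporter.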

[4] = target: Vitamin D3 receptor (Homo sapiens) (UniProt P11473); experiment: qHTS assay to identify small molecule antagonists of the vitamin D receptor (VDR) signaling pathway (AID 743223; active means well fitted inhibition curve with a large enough effect in the signal ratio in the repeat runs, not every such curve was filed as active; inconclusive means weak or mixed curves, or effect the other way; inactive means no such curve, though single readings can be large or run the other way; the % refers to the signal ratio; further: on the % scale 0 is the no-effect control and ±100 the full control effect); conditions: VDR-UAS-bla HEK293T, beta-lactamase FRET ratio, 16 h; activity change, negative = inhibition: at 61 µM (top of the series) unless noted
Summary of the method: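 Reporter line VDR-bla; stimulus 1alpha,25-(OH)2 vitamin D3, 3 nM final; compound co-addition, 16 h 37C/5% CO2; LiveBLAzer B/G substrate 2 h RT; fluorescence intensity.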

[5] = qHTS assay to identify small molecule antagonists of the vitamin D receptor (VDR) signaling pathway - cell viability counter screen (AID 743225; active means well fitted curve in the direction sought with a large enough effect in the repeat runs; inconclusive means weak or mixed curves; inactive means no such curve, though single readings can be large; an effect the other way counts as inactive or inconclusive; further: nearly all actives have a fitted effect of over 50% in size; further: potency means the concentration at half of the fitted maximal effect); conditions: VDR-bla HEK293T viability, CellTiter-Glo luminescence, 16 h; viability change, negative = cytotoxic: at 61 µM (top of the series) unless noted
Summary of the method: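 Parallel cytotoxicity test: VDR-UAS-bla HEK 293T, 3 nM (final) 1-alpha,25-dihydroxyvitamin D3 with test compound, 16 h, 37C. Endpoint is CellTiter-Glo luminescence in the same wells.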

[6] = qHTS assay to identify small molecule agonists of the endoplasmic reticulum stress response signaling pathway (AID 1159516; active means well fitted activation curve with a large enough effect in the signal ratio in the repeat runs, not every such curve was filed as active; inconclusive means weak or mixed curves, or effect the other way; the % refers to the signal ratio; further: potency means the concentration at half of the fitted maximal effect); conditions: ESRE-bla HeLa, ER stress beta-lactamase reporter, 5 h; activation: at 61 µM (top of the series) unless noted
Summary of the method: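 HeLa ESRE-bla reporter line; cpd 5 h, 37 C/5% CO2; LiveBLAzer B/G FRET substrate 2 h RT; ex 405, em 460/530 nm.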

[7] = qHTS assay for small molecule agonists of the antioxidant response element (ARE) signaling pathway (AID 743202; active means well fitted activation curve with a large enough effect in the signal ratio in the repeat runs, not every such curve was filed as active; inconclusive means weak or mixed curves, or effect the other way; inactive means no such curve, though single readings can be large or run the other way; the % refers to the signal ratio; further: potency means the concentration at half of the fitted maximal effect); conditions: HepG2 ARE-bla reporter, beta-lactamase FRET, 16 h; activation: at 73.3 µM (top of the series) unless noted
Summary of the method: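 After 16 hours of compound treatment at 37 C, HepG2 cells with a stably integrated ARE-driven beta-lactamase reporter were loaded 2 hours at room temperature with LiveBLAzer B/G FRET substrate and fluorescence intensity measured.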

[8] = qHTS assay to identify small molecule agonists of the peroxisome proliferator-activated receptor delta (PPARd) signaling pathway - cell viability counter screen (AID 743211; active means well fitted curve in the direction sought with a large enough effect in the repeat runs; inconclusive means weak or mixed curves; inactive means no such curve, though single readings can be large; an effect the other way counts as inactive or inconclusive; further: potency means the concentration at half of the fitted maximal effect; nearly all actives have a fitted effect of over 55% in size); conditions: PPARd-bla HEK293H viability, CellTiter-Glo luminescence, 17 h; activity change, negative = cytotoxicity: at 62.6 µM (top of the series) unless noted
Summary of the method: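 qHTS cell viability: PPARd-bla HEK293H; 17 h cpd, 37C; CellTiter-Glo, luminescence at 30 min RT.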

[9] = qHTS assay to identify small molecule antagonists of the peroxisome proliferator-activated receptor delta (PPARd) signaling pathway - cell viability counter screen (AID 743213; active means well fitted curve in the direction sought with a large enough effect in the repeat runs; inconclusive means weak or mixed curves; inactive means no such curve, though single readings can be large; an effect the other way counts as inactive or inconclusive; further: nearly all actives have a fitted effect of over 50% in size; further: potency means the concentration at half of the fitted maximal effect); conditions: PPARd-bla HEK293H viability, CellTiter-Glo luminescence, 17 h; viability change, negative = cytotoxic: at 62 µM (top of the series) unless noted
Summary of the method: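 Luminescence from CellTiter-Glo, added after the bla read and incubated 30 min at room temperature, gives viability of HEK293H PPARd-bla cells exposed to compounds for 17 h at 37 C with 300 nM L165041.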

[10] = target: Vitamin D3 receptor (Homo sapiens) (UniProt P11473); experiment: qHTS assay to identify small molecule agonists of the vitamin D receptor (VDR) signaling pathway (AID 743222); conditions: HEK293T VDR-UAS-bla, beta-lactamase FRET ratio, 16 h; activation: at 63.5 µM (top of the series) unless noted; further: on the % scale 0 is the no-effect control and ±100 the full control effect
Summary of the method: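 Beta-lactamase reporter readout (LiveBLAzer B/G FRET, 2 h RT) in VDR-bla cells after 16 h compound treatment at 37C, 5% CO2; cells pre-incubated 4 h before pin transfer of DMSO solutions.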

[11] = qHTS assay for small molecule activators of the heat shock response signaling pathway (AID 743210; active means well fitted activation curve with a large enough effect in the signal ratio in the repeat runs, with a control signal flat, not every such curve was filed as active; inconclusive means weak or mixed curves; the % refers to the signal ratio; further: potency means the concentration at half of the fitted maximal effect); conditions: HeLa HSE-bla reporter, beta-lactamase ratio, 5 h; activation: at 62.6 µM (top of the series)
Summary of the method: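 Compound exposure lasted 5 h at 37 C in HeLa cells carrying a heat-shock-element-driven beta-lactamase reporter. Read-out: fluorescence intensity after 2.5 h room-temperature loading with LiveBLAzer B/G FRET substrate.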

[12] = target: Peroxisome proliferator-activated receptor delta (Homo sapiens) (UniProt Q03181); experiment: qHTS assay to identify small molecule antagonists of the peroxisome proliferator-activated receptor delta (PPARd) signaling pathway (AID 743215; active means well fitted inhibition curve with a large enough effect in the signal ratio in the repeat runs, not every such curve was filed as active; inconclusive means weak or mixed curves, or effect the other way; inactive means no such curve, though single readings can be large or run the other way; the % refers to the signal ratio;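 further: cells stimulated with agonist L165041 at 300 nM final during compound exposure; on the % scale 0 is the no-effect control and ±100 the full control effect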); conditions: HEK293H PPARd-UAS-bla, beta-lactamase FRET ratio, antagonist, 17 h; ratio activity, negative = inhibition: at 62 µM (top of the series) unless noted
Summary of the method: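 HEK293H GeneBLAzer PPARd UAS-bla reporter cells; cpd + L165041 300 nM final, 17 h 37 C; LiveBLAzer B/G FRET substrate 2 h RT; fluorescence intensity read-out. Antagonist mode.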

[13] = target: Peroxisome proliferator-activated receptor delta (Homo sapiens) (UniProt Q03181); experiment: qHTS assay to identify small molecule agonists of the peroxisome proliferator-activated receptor delta (PPARd) signaling pathway (AID 743212); conditions: HEK293H PPARd-UAS-bla, beta-lactamase FRET ratio, 17 h; activation: at 62.6 µM (top of the series) unless noted; further: on the % scale 0 is the no-effect control and ±100 the full control effect
Summary of the method: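 Beta-lactamase reporter readout: a ratiometric FRET signal from the LiveBLAzer substrate after 2 h at room temperature. Compound exposure at 37 °C in PPARδ-bla HEK293H cells driven by an upstream activator sequence.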

[14] = target: Bile acid receptor (Homo sapiens) (UniProt Q96RI1); experiment: qHTS assay to identify small molecule agonists of the farnesoid-X-receptor (FXR) signaling pathway (AID 743220; active means well fitted activation curve with a large enough effect in the signal ratio in the repeat runs, not every such curve was filed as active; inconclusive means weak or mixed curves, or effect the other way; the % refers to the signal ratio; further: on the % scale 0 is the no-effect control and ±100 the full control effect); conditions: HEK293T FXR-UAS-bla, beta-lactamase FRET ratio, 16 h; activation: at 62.6 µM (top of the series) unless noted
Summary of the method: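 FXR-UAS-bla HEK 293T cells carrying a UAS-driven beta-lactamase reporter were plated for 5 h at 37C/5% CO2, then exposed to DMSO-dissolved Tox21 10K compounds for 16 h at 37C. A LiveBLAzer B/G FRET substrate was loaded for 2 h at room temperature before fluorescence reading.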

[15] = target: Bile acid receptor (Homo sapiens) (UniProt Q96RI1); experiment: qHTS assay to identify small molecule antagonists of the farnesoid-X-receptor (FXR) signaling pathway (AID 743217; active means well fitted inhibition curve with a large enough effect in the signal ratio in the repeat runs, not every such curve was filed as active; inconclusive means weak or mixed curves, or effect the other way; inactive means no such curve, though single readings can be large or run the other way; the % refers to the signal ratio; further: on the % scale 0 is the no-effect control and ±100 the full control effect); conditions: HEK293T FXR-UAS-bla, beta-lactamase ratio, CDCA-stimulated, 16 h; activity change, negative = inhibition: at 62.6 µM (top of the series) unless noted
Summary of the method: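 Read-out: beta-lactamase FRET fluorescence (LiveBLAzer B/G substrate, 2 h, room temperature) in GeneBLAzer FXR-UAS-bla HEK 293T cells. Compounds were co-dosed with 50 uM chenodeoxycholic acid (final) and incubated 16 h at 37 °C.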

[16] = qHTS assay to identify small molecule agonists of the vitamin D receptor (VDR) signaling pathway - cell viability counter screen (AID 743224; active means well fitted curve in the direction sought with a large enough effect in the repeat runs; inconclusive means weak or mixed curves; inactive means no such curve, though single readings can be large; an effect the other way counts as inactive or inconclusive; further: on the % scale 0 is the no-effect control and ±100 the full control effect; nearly all actives have a fitted effect of over 50% in size)
Summary of the method: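 Cytotoxicity counter screen: VDR-bla cells, 16 h compound exposure at 37C, 5% CO2; CellTiter-Glo luminescence, 30 min RT, same wells as bla read.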
Tags describe the fitted curve by direction and shape or compound fluorescence and quenching.

Chain of UniProt P11473 (P11473 whole entry, looked up): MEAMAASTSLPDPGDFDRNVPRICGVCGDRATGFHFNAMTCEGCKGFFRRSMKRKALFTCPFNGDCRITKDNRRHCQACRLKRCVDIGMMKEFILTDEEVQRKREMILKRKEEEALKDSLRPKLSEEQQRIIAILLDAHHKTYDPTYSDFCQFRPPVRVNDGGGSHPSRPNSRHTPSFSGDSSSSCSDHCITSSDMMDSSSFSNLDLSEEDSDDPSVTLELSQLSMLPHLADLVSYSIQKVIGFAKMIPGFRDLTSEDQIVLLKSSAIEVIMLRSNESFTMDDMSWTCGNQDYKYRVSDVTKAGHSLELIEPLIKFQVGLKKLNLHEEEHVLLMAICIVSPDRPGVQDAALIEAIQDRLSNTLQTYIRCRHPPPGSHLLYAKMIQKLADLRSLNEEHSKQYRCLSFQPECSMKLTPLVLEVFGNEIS
Chain of UniProt Q03181 (Q03181 whole entry, looked up): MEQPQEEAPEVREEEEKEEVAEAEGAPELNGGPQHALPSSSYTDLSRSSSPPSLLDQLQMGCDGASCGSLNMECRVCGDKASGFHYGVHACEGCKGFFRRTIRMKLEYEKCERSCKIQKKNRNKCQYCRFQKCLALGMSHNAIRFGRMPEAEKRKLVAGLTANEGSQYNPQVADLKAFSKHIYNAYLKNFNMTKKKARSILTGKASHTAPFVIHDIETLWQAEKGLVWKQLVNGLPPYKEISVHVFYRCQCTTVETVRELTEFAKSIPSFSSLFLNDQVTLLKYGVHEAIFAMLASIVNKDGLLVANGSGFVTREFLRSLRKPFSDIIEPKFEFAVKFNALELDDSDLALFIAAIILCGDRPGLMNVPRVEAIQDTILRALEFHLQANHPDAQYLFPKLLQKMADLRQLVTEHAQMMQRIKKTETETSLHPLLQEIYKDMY
Chain of UniProt Q96RI1 (Q96RI1 whole entry, looked up): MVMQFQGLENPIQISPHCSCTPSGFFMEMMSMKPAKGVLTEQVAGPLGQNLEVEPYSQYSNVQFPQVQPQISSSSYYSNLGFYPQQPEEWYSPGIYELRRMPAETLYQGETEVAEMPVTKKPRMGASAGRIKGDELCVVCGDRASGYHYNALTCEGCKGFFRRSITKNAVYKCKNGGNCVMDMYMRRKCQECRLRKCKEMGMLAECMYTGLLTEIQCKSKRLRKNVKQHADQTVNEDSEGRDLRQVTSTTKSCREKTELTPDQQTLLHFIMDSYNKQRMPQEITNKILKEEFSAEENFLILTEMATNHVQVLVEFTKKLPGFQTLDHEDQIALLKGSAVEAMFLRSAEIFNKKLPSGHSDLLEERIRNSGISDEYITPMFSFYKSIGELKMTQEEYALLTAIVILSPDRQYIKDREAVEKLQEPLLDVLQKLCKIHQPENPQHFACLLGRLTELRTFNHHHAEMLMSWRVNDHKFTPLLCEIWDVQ
Chain of UniProt P37231 (P37231 whole entry, looked up): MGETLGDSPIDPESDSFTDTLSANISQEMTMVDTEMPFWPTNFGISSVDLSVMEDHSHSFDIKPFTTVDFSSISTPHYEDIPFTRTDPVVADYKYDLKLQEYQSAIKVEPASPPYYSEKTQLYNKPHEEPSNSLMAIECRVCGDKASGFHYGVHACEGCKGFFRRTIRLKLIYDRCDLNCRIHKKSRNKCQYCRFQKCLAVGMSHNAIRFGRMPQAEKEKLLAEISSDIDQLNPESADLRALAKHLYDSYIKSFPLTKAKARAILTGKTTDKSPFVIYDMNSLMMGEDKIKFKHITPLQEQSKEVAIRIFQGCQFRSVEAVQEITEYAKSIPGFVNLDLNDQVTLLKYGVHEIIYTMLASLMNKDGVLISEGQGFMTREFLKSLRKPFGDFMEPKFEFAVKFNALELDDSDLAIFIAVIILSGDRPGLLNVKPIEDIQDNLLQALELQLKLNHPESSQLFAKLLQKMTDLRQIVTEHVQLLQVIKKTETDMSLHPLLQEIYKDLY

With `CCOC(=O)C(Cl)C(C)=O` (stereo not drawn) the Potency [1] was inconclusive: 7 µM [inhibitor, full curve], the Potency [2] was “inactive” and the Potency [3] was “inactive”. For the same molecule, the Potency [4] was “inactive”, the viability change, negative = cytotoxic [5] was inconclusive: -30.1% [cytotoxic] [at 78.8 µM] and the Potency [6] was inconclusive: 62.4 µM.
For `CC(CC(C#N)(c1ccccc1)c1ccccc1)N(C)C` (stereo not drawn), the ratio activity, negative = inhibition [1] was inconclusive: -22.1% [at 81.1 µM], the Potency [7] was inconclusive: 30.5 µM [falling, partial curve, poor fit] and the Potency [8] was inconclusive: 54.2 µM [cytotoxic, partial curve, poor fit]. For the same molecule, the Potency [9] was inconclusive: 48.3 µM [cytotoxic, partial curve, poor fit], the Potency [10] was “inactive” and the Potency [6] was “inactive”.
For `CON(C)C(=O)Nc1ccc(Cl)cc1`, the Potency [1] was “inactive”, the Potency [7] was “inactive” and the Potency [9] was “inactive”. For the same molecule, the Potency [5] was inconclusive: 61.6 µM [cytotoxic, partial curve, poor fit] and the Potency [6] was “inactive”.
For `CCCCN(N=O)C(=N)N[N+](=O)[O-]`, the Potency [1] was inconclusive: 56.1 µM [activator], the Potency [2] was inconclusive: 50 µM [cytotoxic, single point] and the Potency [11] was inconclusive: 48.1 µM [activator]. The Potency [12] was “inactive” and the Potency [6] was inconclusive: 50 µM [rising, single point].
For `O=C(Cl)OCCOCCOC(=O)Cl`, the ratio activity, negative = inhibition [1] was inconclusive: -0.248%, the activation [7] was inconclusive: 4.09% and the viability change, negative = cytotoxic [9] was inconclusive: 15.3% [cytotoxic]. For the same molecule, the Potency [3] was inconclusive: 0.616 µM [rising, full curve, poor fit], the Potency [5] was inconclusive: 0.195 µM [cytotoxic, single point] and the Potency [6] was “inactive”.
For `COc1nn(C(=O)NS(=O)(=O)c2ccccc2OC(F)(F)F)c(=O)n1C`, the Potency [1] was “inactive”, the activation [7] was inconclusive: 41.1% and the Potency [13] was “inactive”. For the same molecule, the Potency [4] was “inactive” and the Potency [6] was inconclusive: 56.3 µM [activator, single point].
For `O=C(CBr)OCc1ccccc1`, the ratio activity, negative = inhibition [1] was inconclusive: 3.34%, the Potency [7] was “inactive” and the Potency [13] was “inactive”. The Potency [14] was “inactive”, the Potency [5] was inconclusive: 0.389 µM [cytotoxic, full curve, poor fit] and the Potency [6] was “inactive”.
For `II`, the Potency [1] was inconclusive: 61.6 µM [activator], the Potency [7] was “inactive” and the Potency [13] was “inactive”. For the same molecule, the Potency [6] was inconclusive: 1.23 µM [rising, partial curve].
In the case of `CCOC(=O)Cc1ccccc1`, the Potency [1] is reported as inconclusive: 61.6 µM [fluorescent, partial curve, poor fit], the Potency [7] is reported as “inactive” and the Potency [9] is reported as inconclusive: 1.74 µM [cytotoxic, full curve]. For the same molecule, the Potency [3] was “inactive”, the Potency [4] was “inactive” and the Potency [5] was inconclusive: 5.49 µM [cytotoxic, single point]. The Potency [6] was “inactive”.
For `O=C(O)c1cccc(Cl)c1`, the Potency [1] was “inactive”, the activation [7] was inconclusive: 18.9% and the Potency [12] was “inactive”. For the same molecule, the Potency [6] was “inactive”.
In the case of `CC1=C2[C@H]3OC(=O)[C@@H](C)[C@@H]3CC[C@@]2(C)C=CC1=O`, the Potency [1] is reported as “inactive”, the activation [7] is reported as inconclusive: 18.9% and the Potency [12] is reported as “inactive”. For the same molecule, the Potency [15] was “inactive” and the Potency [6] was “inactive”.
With `CNC(=O)O/N=C(\SC)C(=O)N(C)C` the ratio activity, negative = inhibition [1] was inconclusive: 6.53% [at 81.1 µM], the activation [7] was inconclusive: 1.21% [at 94.8 µM] and the Potency [11] was inconclusive: 42.5 µM [rising, partial curve, poor fit]. The Potency [3] was inconclusive: 0.0218 µM [rising, full curve, poor fit] and the Potency [6] was “inactive”.
With `CN(C)C(=O)Nc1ccc(Cl)cc1` the ratio activity, negative = inhibition [1] was inconclusive: 4.08%, the activation [7] was inconclusive: -3.95% and the Potency [15] was “inactive”. For the same molecule, the Potency [5] was “inactive” and the activation [6] was inconclusive: -1.02%.
For `O=C1C(Cl)C(CCl)CN1c1cccc(C(F)(F)F)c1` (stereo not drawn), the Potency [1] was active: 21.9 µM, the Potency [7] was inconclusive: 61.1 µM [rising, partial curve] and the Potency [12] was “inactive”. The activity change, negative = inhibition [4] was inconclusive: 2.8%, the Potency [16] was “inactive” and the Potency [6] was “inactive”.
For `O=C(O)C(Br)CBr` (stereo not drawn), the ratio activity, negative = inhibition [1] was inconclusive: 13.4% [at 81.1 µM], the Potency [7] was active: 27.8 µM and the activation [13] was inconclusive: 4.95% [at 81.1 µM]. For the same molecule, the Potency [6] was “inactive”.
With `O=C(O)c1ccccc1C(=O)Nc1cccc2ccccc12` the Potency [1] was “inactive”, the Potency [7] was inconclusive: 68.6 µM [rising, single point] and the Potency [4] was “inactive”. The Potency [6] was inconclusive: 17.4 µM [activator, partial curve, poor fit].
